Data on 22 molecules can be found in paper PMC12136788.

The labels stand for the following.
B1: chr21:30319405:30320035:-|CDS|ENSG00000197683|control|control|control (ssRNA)
RNA: GGGAGUUCUACAGUCCGACGAUCGAGGUAUGUGUCCAGCGGCUGUCGUCCACUGAGGCCGCUGCUCAAUAGUUACCAGCCCAUAGGAGACUGUGUGCCCAAUGCCUAUCGCCCCCAAUUCUGCUUGUCCAAGAGUUGCCAGCCCAACAGAGGAUUGAGCAUCA
B2: chr10:116062369:116062470:-|3pUTR|ENSG00000151892|msi1|total|mutant (ssRNA)
RNA: GGGAGUUCUACAGUCCGACGAUCCUUUUUUCACUUCAAAAUGUUUUCAAGGGAAAUUCAGCAGACACCCAACUGUAUUUAAUCCGUGAAAAGAUCUAUAAAGACUCUUACUUUGAAUAAACACAUUAAGUAAGUGUGUCAAAACAACAGAGGAUUGAGCAUCA
B3: ENSG00000198589:be:win_2601|CDS|ENSG00000198589|bound_else_gene|NA|bound_elsewhere_windowed (ssRNA)
RNA: GGGAGUUCUACAGUCCGACGAUCAGAAUGGAUGCUUUCUCUCUGCUAUUUUAAUCCUAAGAAUUCAGAUGAGCAAAAGAUAACAGAAAUGGUAUACGCCAUAUUCAGAAUCCUGCUUUACCAUGCAGUCAAAUAUGAGUGGGGCAACAGAGGAUUGAGCAUCA
B4: chr19:5611119:5611630:-|CDS|ENSG00000130254|control|control|control (ssRNA)
RNA: GGGAGUUCUACAGUCCGACGAUCGCCUCUAGCGAGGAGCUCGCAGAAGCACCCACGGAAGCCCCAAGCCCAGAAGCCAGAGAUAGCAAAGAAGACGGGAGGAAGUUUGAUUUUGACGCUUGUAAUGAAGUCCCUCCGGCUCCUCAACAGAGGAUUGAGCAUCA
B5: chr17:15229982:15230086:-|3pUTR|ENSG00000109099|msi1_unk|FALSE|overlapping (ssRNA)
RNA: GGGAGUUCUACAGUCCGACGAUCUCAUAAAGCCUUCAUCACUCCCACAUUUUUCUUACGGUCGGAGCAUCAGAACAAGCGUCUAGACUCCUUGGGACCGUGAGUUCCUAGAGCUUGGCUGGGUCUAGGCUGUUCUGUGCCUCCCAACAGAGGAUUGAGCAUCA
B6: chr15:38485071:38485172:+|3pUTR|ENSG00000171262|unk|FALSE|unique (ssRNA)
RNA: GGGAGUUCUACAGUCCGACGAUCUUGCCUCACCUGUAUUGCUGUGGAUGUGUUUUGUGGGUUUUUCAUUCGAUUUUACAAAAUAGGGAAAGGCACUUCCAGUUGUAUUUAGUAGGCAGUUGUUGUGAAUCAUUUUUUUCUCUUCAACAGAGGAUUGAGCAUCA
B7: ENSG00000070961:be:win_4251|3pUTR|ENSG00000070961|bound_else_gene|NA|bound_elsewhere_windowed (ssRNA)
RNA: GGGAGUUCUACAGUCCGACGAUCGUACUAAAUUUUUGCCUACAAUUUACCUUGUUAAAUAUUGUAGAUAAAUUGCUAAUACUAAUAGCCAAAUAGAUAACACUAAUGCUUUGUUUAAAAAAACGAAAAAAACAAAACAAAACACAACAGAGGAUUGAGCAUCA
B8: chr1:28742582:28742694:+|CDS|ENSG00000198492|unk|total|mutant (ssRNA)
RNA: GGGAGUUCUACAGUCCGACGAUCAGCAACGGAGAGCCCCACUUCCUACCAGAUGCAAUGUUUGGGCAACCAGGAGCCCCCGGCCGCACUCCAUUUCUUGGUCAGCAUGGUUUUAAUUUCUUUCCCAGUGGGAUUGACUUCUCACAACAGAGGAUUGAGCAUCA
B9: chr19:39385628:39385990:-|three_prime_utr|ENSG00000006712|control|control|control (ssRNA)
RNA: GGGAGUUCUACAGUCCGACGAUCGUCCCAGGGCAUUCAGGGCUGGUUCAGACACCAUUAUUGUGAGCAGCAAAGCACUUUUCUAGUGGUCUGUUUGUGAGCCUUUCACUUGUUUGUUCCCCACCCCCAAACCUUUGCUGUUAACAACAGAGGAUUGAGCAUCA
B10: chr5:82277714:82277885:-|CDS|ENSG00000186468|unk|total|mutant (ssRNA)
RNA: GGGAGUUCUACAGUCCGACGAUCAACUAAAAUAUUUAAUUUUCCGGCAAGUGUCGUGGACUUCGUACUGCCCGGAAGCUCCGCCGUCACCGACGAGACCAGAAGUGGCAUGAUAAACAGUAUAAGAAAGCUCAUUUGGGCACACAACAGAGGAUUGAGCAUCA
B11: chr1:193029531:193029688:-|CDS|ENSG00000116750|unk|FALSE|unique (ssRNA)
RNA: GGGAGUUCUACAGUCCGACGAUCUUGAUAUCUUCACUUUUAUAUUUUAUAGGUAAUUAAUAAUGCUUGUGCUACUCAAGCCAUAGUGAGUGUGUUACUGAACUGUACCCACCAGGAUGUCCAUUUAGGCGAGACAUUAUCAGACAACAGAGGAUUGAGCAUCA
B12: chr1:42176760:42176861:-|3pUTR|ENSG00000198815|msi1|FALSE|bound_elsewhere (ssRNA)
RNA: GGGAGUUCUACAGUCCGACGAUCGUCGCUCAGAUGUCCUUUGAAGUGGGAGGGAAUCAAUCCGGGGAUAAUUUCAAAUGGAAUAGAGUAUUUUGAUAUUGUUCAUUCAGAGGGUGAUGUGUACAUAUCUAUAUUGUAUAUAUGCAACAGAGGAUUGAGCAUCA
B13: chr19:2853326:2853433:+|CDS|ENSG00000186300|unk|total|mutant (ssRNA)
RNA: GGGAGUUCUACAGUCCGACGAUCCAAUGUGGGAAAACUUUCAAUUGGCCCAUAUCUUUACGAAAACAUAUGAGAACACAUACCCGAGAGAAACCCUAUGAAUGUAAGCAGUGUGGGAAAGCCUUCAGCUUGUCUGCUUGCUUUCAACAGAGGAUUGAGCAUCA
B14: chr5:75599425:75599511:+|3pUTR|ENSG00000122008|msi1_unk|FALSE|overlapping (ssRNA)
RNA: GGGAGUUCUACAGUCCGACGAUCGAAUAGCUUAAUUAAGAACUCACAGACUUUGACAAAGUGGUAACUAGACUUUUAAUUACUAGAUUCUUCAAAUUAGGCUUAAUGCCUGCUAGCAUGCCAAUCCAAUCCCAUGACUGAUGUCAACAGAGGAUUGAGCAUCA
B15: chr19:35623844:35623945:+|3pUTR|ENSG00000249115|unk|FALSE|unique (ssRNA)
RNA: GGGAGUUCUACAGUCCGACGAUCUGUGUCAAGAGCAGCGGCGGUGACGCAGGUGUAGAGAUUUGUCAGAGCUCAUGUAGUUGUAGUCUUAAGGCCUGUGCAUUUCACUGCGUGGGUUACUCAAUUUAUAAAGCAAAGCCCUUACAACAGAGGAUUGAGCAUCA
B16: chr12:122341087:122341188:-|CDS|ENSG00000130779|unk|FALSE|bound_elsewhere (ssRNA)
RNA: GGGAGUUCUACAGUCCGACGAUCAGAAUUUGCUGAACUAAAAACACAAAUAGAGAAAAUGAGACUAGAUUACCAACACGAAAUAGAAAAUUUGCAGAAUCAACAAGACUCUGAACGGGCUGCCCAUGCUAAAGAGAUGGAAGCCAACAGAGGAUUGAGCAUCA
B17: chr3:52707940:52708050:+|3pUTR|ENSG00000114902|msi1_unk|FALSE|overlapping (ssRNA)
RNA: GGGAGUUCUACAGUCCGACGAUCUUUAGUUCUCUUUAUACUUCAUUUCUAGCCCAGUUGGGUUUUGAUUUAUAUAAGUAGUUUAGACCUUCUCUUCAUAAUCUUGCUCUGAGAUGGGGAACAGAACACACAAGUAUGAAGUUUCAACAGAGGAUUGAGCAUCA
B18: chr16:1943973:1944836:-|three_prime_utr|ENSG00000140986|control|control|control (ssRNA)
RNA: GGGAGUUCUACAGUCCGACGAUCUUCCUGCGAGGUCUCAGAGCGCUGUGUAACCGCCCAAGGGGUUCACCUUGCCUGCUGCCUAGACAAAGCCGAUUCAUUAAGACAGGGGAAUUGCAAUAGAGAAAGAGUAAUUCACACAGACAACAGAGGAUUGAGCAUCA
B19: chr3:193274788:193275041:-|three_prime_utr|ENSG00000187527|control|control|control (ssRNA)
RNA: GGGAGUUCUACAGUCCGACGAUCUCUCCAUUCAAGCAUUCAAAGUAUAUUUUCAAUGAAUUAAACCUUGCAGCAAGGGACCUUAGAUAGGCUUAUUCUGACUGUAUGCUUUACCAAUGAGAGAAAAAAAUGCAUUUCCUGUAUCAACAGAGGAUUGAGCAUCA
B20: chr7:123541454:123541562:-|3pUTR|ENSG00000128609|unk|total|mutant (ssRNA)
RNA: GGGAGUUCUACAGUCCGACGAUCUCCACCGUGUCAUUUUAUUUCCGUCAUUAUUGAAUUAUACCAUUUACUCUGUUUUCUUACCGUCUUAAUUUUAUUAUAUUUUGUUGUUACUGUAUUAUAUUUGAAAACCUUCAAAUCCGACAACAGAGGAUUGAGCAUCA
B21: chr8:80500255:80500365:+|CDS|ENSG00000205189|unk|FALSE|unique (ssRNA)
RNA: GGGAGUUCUACAGUCCGACGAUCGAAAAACCAAACUACAAAAAGAUUUAUUUAUAAUAUUCCACCUAAUAAUGAAACGAAUUUAGAAGAUUGCUCAGUAAUGCAGCCACCUGUUGCCUAUCCAGAAGAAAAUACACUACUCAUCAACAGAGGAUUGAGCAUCA
B22: chr8:132572308:132572480:-|CDS|ENSG00000129295|control|control|control (ssRNA)
RNA: GGGAGUUCUACAGUCCGACGAUCGCACAUGGAGAAACUAGAAGUAGACCCUAGCAAGCACUCAUUCCCUGAUGUGACUAACAUAGUUCAAGAGAAAAAACACACACCCAGAAGACGACCUGAACCCAAAAUUAUACCAAGUGACAACAGAGGAUUGAGCAUCA

Some of the results follow.

The test has as its target MSI1 full-length (mouse, UniProt Q61474 1-362). The test is described as follows: nsRBNS (natural sequence RNA bind-n-seq); RBNS binding buffer (assumed for nsRBNS): 25 mM Tris pH 7.5, 150 mM KCl, 3 mM MgCl2, 0.01% Triton X-100, 500 ug/ml BSA, 20 U/ml SUPERase-In, 4 C; UNK is unkempt and MSI1 is Musashi-1; names of the RNAs are library labels; protein concentration not given here; high values mean tight binding.
Sequence of UniProt Q61474 (Q61474 whole entry): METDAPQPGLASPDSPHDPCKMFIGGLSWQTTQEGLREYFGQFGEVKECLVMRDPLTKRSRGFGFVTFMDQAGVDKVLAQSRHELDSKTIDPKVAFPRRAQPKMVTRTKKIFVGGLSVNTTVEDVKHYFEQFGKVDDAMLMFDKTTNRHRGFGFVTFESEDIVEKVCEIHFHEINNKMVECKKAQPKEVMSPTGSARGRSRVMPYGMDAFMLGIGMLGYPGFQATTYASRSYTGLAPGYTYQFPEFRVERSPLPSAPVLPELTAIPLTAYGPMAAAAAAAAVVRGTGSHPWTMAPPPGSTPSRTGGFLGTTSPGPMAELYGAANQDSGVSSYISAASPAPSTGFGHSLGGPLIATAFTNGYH
As for B1, the binding signal is 0.523 enrichment R. Under B2 stands 0.276 enrichment R; under B3, 0.326 enrichment R.

With B4, the binding signal came out at 0.436 enrichment R.

For B5, the binding signal came to 0.555 enrichment R. Under B6 stands 1.7 enrichment R. B7 gave a binding signal of 2.54 enrichment R. For B8, the binding signal is 0.445 enrichment R. With B9, the binding signal was 0.629 enrichment R.

In turn, B10 displayed a binding signal of 0.658 enrichment R.

As for B11, the binding signal came to 30 enrichment R. The same measure for B12: 0.966 enrichment R; for B13: 0.213 enrichment R. Under B14 stands 13.4 enrichment R.

On to B15, for which the binding signal was determined as 11 enrichment R. B16: the binding signal turned out to be 16.5 enrichment R. In the case of B17, the binding signal came out at 5.03 enrichment R. Under B18 stands 0.836 enrichment R. Under B19 stands 1.18 enrichment R; under B20, 37 enrichment R; under B21, 13.6 enrichment R. The same measure for B22: 7.86 enrichment R.
